# Some of the results follow. These are noisy estimates, calculated here from bound and input reads.
# Target: T1, Pho4 (S. cerevisiae) (UniProt P07270)
# T1 sequence: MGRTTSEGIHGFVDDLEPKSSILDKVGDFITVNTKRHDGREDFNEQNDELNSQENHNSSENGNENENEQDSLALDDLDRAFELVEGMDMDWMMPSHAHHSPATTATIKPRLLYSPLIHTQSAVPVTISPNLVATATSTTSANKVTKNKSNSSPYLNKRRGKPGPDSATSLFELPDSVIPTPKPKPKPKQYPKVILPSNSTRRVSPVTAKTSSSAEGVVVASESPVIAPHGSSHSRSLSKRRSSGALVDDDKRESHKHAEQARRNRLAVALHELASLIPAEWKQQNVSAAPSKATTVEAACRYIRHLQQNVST
# Assay: relative binding free energy (BET-seq); higher = weaker binding
# Details: reference: library average
row,Sequence,relative binding free energy
1,TTTGCCACGTGATGAG,-0.05 kcal/mol
2,TGGGGCACGTGACTGA,0.08 kcal/mol
3,TTGATCACGTGTGTGG,0.18 kcal/mol
4,ATTGTCACGTGATATA,0.26 kcal/mol
5,TTAGTCACGTGTGCGA,0.08 kcal/mol
6,TAGGGCACGTGGCGAG,-0.16 kcal/mol
7,TAATTCACGTGGGCTT,0.2 kcal/mol
8,ATGAACACGTGGGTTG,-0.06 kcal/mol
9,AGGGGCACGTGTGTCG,-0.06 kcal/mol
10,TTATCCACGTGGTGTG,-0.09 kcal/mol
11,TGGGGCACGTGAACGT,0.17 kcal/mol
12,TATCGCACGTGAGGGC,0.14 kcal/mol
13,TGTTGCACGTGTGGTC,0.11 kcal/mol
14,GTTTACACGTGTATAA,0.23 kcal/mol
15,TAGTACACGTGTTTGC,-0.09 kcal/mol
16,CATTTCACGTGTTTTT,0.28 kcal/mol
17,GGTTTCACGTGTAACT,0.46 kcal/mol
18,TGTTACACGTGAAGTG,0.34 kcal/mol
19,GTCTGCACGTGGGCGT,-0.15 kcal/mol
20,AAATGCACGTGTTGTG,-0.03 kcal/mol
21,TATGACACGTGATTTT,0.32 kcal/mol
22,GGTGACACGTGGGTTC,-0.01 kcal/mol
23,GTTTGCACGTGGGGCT,-0.11 kcal/mol

row,Sequence,relative binding free energy
1,TCGTTCACGTGAGCTT,0.37 kcal/mol
2,TGGTGCACGTGGTTAG,-0.14 kcal/mol
3,TAGGCCACGTGGGAAT,-0.03 kcal/mol
4,GAATGCACGTGAGAGG,0.16 kcal/mol
5,TGCAACACGTGGGTGA,-0.09 kcal/mol
6,TCAGTCACGTGTCTGG,0.21 kcal/mol
7,TGAGGCACGTGAGTGC,0.26 kcal/mol
8,TGGGACACGTGAGCTG,0.25 kcal/mol
9,TCTAGCACGTGGTAGT,-0.11 kcal/mol
10,TGATGCACGTGGCGGG,-0.13 kcal/mol
11,CCGGACACGTGGAGGT,0.21 kcal/mol
12,ATCGTCACGTGGGAGA,0.14 kcal/mol
13,TTATGCACGTGTAAAG,-0.03 kcal/mol
14,TGTTTCACGTGCGGAC,0.17 kcal/mol
15,TTATACACGTGGTAGG,0.03 kcal/mol
16,GTTGGCACGTGGAGTC,0.04 kcal/mol
17,TTGGTCACGTGCTTGA,0.18 kcal/mol
18,GGAATCACGTGGGACG,0.13 kcal/mol
19,TTATTCACGTGTCATA,0.18 kcal/mol
20,GATTGCACGTGCATGT,-0.02 kcal/mol
21,TGTTCCACGTGTTAAT,0.03 kcal/mol
22,CTGTACACGTGGTTCG,0.12 kcal/mol
23,GGGCTCACGTGGGGTA,0.18 kcal/mol

row,Sequence,relative binding free energy
1,TTTAACACGTGCGGTC,0.07 kcal/mol
2,ACCGGCACGTGTGGTT,0.02 kcal/mol
3,GTAGACACGTGCGGTG,-0.17 kcal/mol
4,AGAGGCACGTGGGATC,-0.05 kcal/mol
5,CATGGCACGTGTGATG,-0.14 kcal/mol
6,CGGGGCACGTGACCGG,-0.12 kcal/mol
7,GTGATCACGTGTTCGG,0.28 kcal/mol
8,AGATACACGTGGTTTG,-0.13 kcal/mol
9,CTAGACACGTGGGTGT,-0.15 kcal/mol
10,TTCATCACGTGTGAAT,0.27 kcal/mol
11,CAGTTCACGTGTGGCG,0.2 kcal/mol
12,GGGTGCACGTGCAAGT,0.1 kcal/mol
13,AGGAGCACGTGGGCGA,-0.25 kcal/mol
14,TGTTACACGTGACATG,0.22 kcal/mol
15,GATGACACGTGAGTGT,0.31 kcal/mol
16,GTGGACACGTGTTGTC,0.12 kcal/mol
17,TCTTACACGTGTGTAG,0.16 kcal/mol
18,TCATGCACGTGATGTT,-0.1 kcal/mol
19,TGTTACACGTGCTAGT,0.1 kcal/mol
20,TTGATCACGTGGCTTT,0.05 kcal/mol
21,TTTTGCACGTGGTGCC,0.03 kcal/mol
22,CTTGGCACGTGTATAG,-0.08 kcal/mol
23,TATATCACGTGAGTTG,0.31 kcal/mol

row,Sequence,relative binding free energy
1,TAATGCACGTGATCTG,0.07 kcal/mol
2,TGATTCACGTGTGTTA,0.35 kcal/mol
3,TCGTACACGTGTGAGA,0.4 kcal/mol
4,TGGGGCACGTGTCCGA,-0.12 kcal/mol
5,CAGGTCACGTGTGGAA,0.16 kcal/mol
6,AGAGGCACGTGCTTGT,-0.2 kcal/mol
7,TGTGCCACGTGTCGGG,-0.1 kcal/mol
8,GAAGGCACGTGGGGTT,-0.11 kcal/mol
9,GCTGTCACGTGGGCGG,-0.02 kcal/mol
10,ATATTCACGTGAGGAT,0.32 kcal/mol
11,CGCGGCACGTGTTATG,-0.1 kcal/mol
12,GCGGTCACGTGGGGGA,-0.01 kcal/mol
13,ATGTGCACGTGAGCGT,0.03 kcal/mol
14,AGTTCCACGTGTTAAG,0.15 kcal/mol
15,TGCAGCACGTGATTGG,-0.01 kcal/mol
16,ATTGTCACGTGTTTGT,0.12 kcal/mol
17,TGCGTCACGTGTTTTG,0.03 kcal/mol
18,AAGCTCACGTGAGGGG,0.28 kcal/mol
19,TCGGGCACGTGAGCGG,-0.01 kcal/mol
20,GTTTACACGTGATGCA,0.2 kcal/mol
21,ATCTACACGTGTGGGT,0 kcal/mol
22,TTTAACACGTGGACTG,-0.1 kcal/mol
23,GAATACACGTGATGGG,0.23 kcal/mol

row,Sequence,relative binding free energy
1,TTGGGCACGTGCCGTG,-0.22 kcal/mol
2,AGTTACACGTGTACGG,0.1 kcal/mol
3,ATCGTCACGTGCCGGG,0.18 kcal/mol
4,TGTATCACGTGTATCG,0.15 kcal/mol
5,TTACGCACGTGAGTAG,0.24 kcal/mol
6,GTAGGCACGTGGGTTG,-0.12 kcal/mol
7,AGTAGCACGTGAAGTT,0.33 kcal/mol
8,GACATCACGTGGGGGG,0.11 kcal/mol
9,CTAGTCACGTGATTAG,0.31 kcal/mol
10,GTTAGCACGTGGGGCA,-0.22 kcal/mol
11,TGGGTCACGTGGTTTA,0.14 kcal/mol
12,ATAGTCACGTGGGGCG,-0.1 kcal/mol
13,CGCGCCACGTGGTGGA,-0.05 kcal/mol
14,TTGAGCACGTGTTTTC,-0.02 kcal/mol
15,GGATGCACGTGACTGG,0.01 kcal/mol
16,AATGGCACGTGGTTAA,-0.14 kcal/mol
17,GGTTTCACGTGCGGTC,0.25 kcal/mol
18,AAGGGCACGTGCAGTG,-0.09 kcal/mol
19,TTACTCACGTGTTGCT,0.3 kcal/mol
20,TTTCTCACGTGTGTTC,0.2 kcal/mol
21,TGGGCCACGTGAATGG,0.27 kcal/mol
22,CTCGGCACGTGGGCAG,-0.18 kcal/mol
23,AAAGTCACGTGTGTCG,0.01 kcal/mol
